Article PMC4336329 (PLoS ONE, 2015)
About 2,200 (0.71%) of roughly 310,000 compounds showed an effect of 50% or more. The effect is printed as a negative number. The list shows a part of the results.

Molecular target: human ether-à-go-go-related gene (hERG) potassium channel (human, UniProt Q12809)
Assay: primary screen, population patch clamp on CHO cells stably expressing hERG

human ether-à-go-go-related gene (hERG) potassium channel, sequence (Q12809 whole entry, looked up): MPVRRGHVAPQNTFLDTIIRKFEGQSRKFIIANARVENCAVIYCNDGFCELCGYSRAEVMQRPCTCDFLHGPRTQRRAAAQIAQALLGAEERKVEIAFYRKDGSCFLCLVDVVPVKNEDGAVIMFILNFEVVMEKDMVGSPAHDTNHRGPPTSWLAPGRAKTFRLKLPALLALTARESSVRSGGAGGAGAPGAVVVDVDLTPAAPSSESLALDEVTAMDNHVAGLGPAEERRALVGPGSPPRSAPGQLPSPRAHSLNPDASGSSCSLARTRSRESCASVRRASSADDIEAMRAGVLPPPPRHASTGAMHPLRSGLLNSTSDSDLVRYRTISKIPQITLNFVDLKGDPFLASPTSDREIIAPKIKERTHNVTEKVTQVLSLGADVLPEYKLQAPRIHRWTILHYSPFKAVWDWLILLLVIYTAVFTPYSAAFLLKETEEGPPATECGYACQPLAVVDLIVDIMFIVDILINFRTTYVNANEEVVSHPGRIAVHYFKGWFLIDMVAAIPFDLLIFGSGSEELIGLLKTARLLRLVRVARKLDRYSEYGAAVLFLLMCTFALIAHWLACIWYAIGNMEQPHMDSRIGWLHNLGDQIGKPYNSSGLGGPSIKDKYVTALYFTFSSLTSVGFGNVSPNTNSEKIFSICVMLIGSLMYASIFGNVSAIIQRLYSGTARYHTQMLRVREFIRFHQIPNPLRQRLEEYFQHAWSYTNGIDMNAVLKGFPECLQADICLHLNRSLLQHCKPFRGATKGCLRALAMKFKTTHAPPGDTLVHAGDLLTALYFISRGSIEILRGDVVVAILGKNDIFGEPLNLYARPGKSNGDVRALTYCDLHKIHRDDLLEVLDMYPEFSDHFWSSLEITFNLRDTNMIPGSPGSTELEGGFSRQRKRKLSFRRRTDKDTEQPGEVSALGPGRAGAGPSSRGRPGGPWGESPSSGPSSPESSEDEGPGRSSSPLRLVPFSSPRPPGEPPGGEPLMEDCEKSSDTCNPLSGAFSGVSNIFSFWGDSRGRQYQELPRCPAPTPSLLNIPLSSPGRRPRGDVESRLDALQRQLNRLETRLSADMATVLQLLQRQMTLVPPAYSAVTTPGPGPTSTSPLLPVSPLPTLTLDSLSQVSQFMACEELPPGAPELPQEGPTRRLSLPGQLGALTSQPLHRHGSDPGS

| SMILES | hERG current change (%, negative = inhibition) at 1uM [%] |
| --- | --- |
| COc1ccc(N2C(=O)CCC(C(=O)N(C)C3CCCCC3)C2c2ccc(OC)c(OC)c2)cc1 (stereo not shown) | 9.16 |
| Cc1ccccc1OCCC(=O)OCC(=O)NC1CCCC1 | 0.941 |
| Cc1ccc2c(c1)N(S(=O)(=O)c1cc(-c3onc(C)c3C)ccc1C)CCO2 | 15.6 |
| CCCOc1ccccc1Cn1c(=O)oc2ccccc21 | 10.2 |
| COCCSc1nnc(NC(=O)Cc2ccccc2OC)s1 | -4.38 |
| CC(C)CNc1nc(Oc2ccc(=O)n(C)n2)nc(N2CCOCC2)n1 | 6.14 |
| C=CCNC(=O)C12CCC(C)(C(=O)[C@H]1Br)C2(C)C (stereo partly shown) | 5.97 |
| Cc1cc(NC(=O)NC2CC(=O)N(c3ccc4c(c3)OCCO4)C2)no1 (stereo not shown) | 11.3 |
| Cc1ccc(CCNS(=O)(=O)c2ccc3c(c2)N(C)CCO3)cc1 | 14.8 |
| Cc1cc(NC(=O)CSc2nc3ccccc3[nH]2)n(-c2ccccc2)n1 | 12.7 |
| O=C(NCc1ccccc1)N1CCCC1 | 13.3 |
| C#CCN1C(=O)S/C(=C/c2cc(C)n(CC)c2C)C1=O | 10.4 |
| CCOc1cc(C)nc(N2CCN(C3CCCCC3)CC2)n1 | -48 |
| COc1ccc(-n2c(=S)[nH]c3cc(C(=O)Nc4ccccc4OC)ccc3c2=O)c(OC)c1 | 23.7 |
| CC(C)=CCC(C)(C)/C=N/NC(N)=O | 10.2 |
| CCOc1c(OC(C)=O)ccc(/C=C2\N=C(SCC)SC2=O)c1[N+](=O)[O-] | 16.1 |
| O=C(CSc1nnc(-c2ccc(O)cc2)o1)NNC(=O)c1ccncc1 | 13.6 |
| O=C(NCC(=O)N(CCN1CCOCC1)C(C(=O)NC1CCCC1)c1cccnc1)c1cccs1 (stereo not shown) | 9.12 |
| O=c1nc(-c2ccccc2)c2cc(SC(F)F)ccc2[nH]1 | 6.79 |
| Cc1cc(C)n(C(N)=NC(=O)c2ccc([N+](=O)[O-])cc2)n1 | 13.8 |
| O=C1Nc2ccccc2C(O)(C(=O)N2CCCCC2)N1c1ccccc1 (stereo not shown) | 8.17 |
| Cc1ccc(-n2c(=O)cc(N3CCCCCC3)[nH]c2=O)cc1 | 8.22 |
| O=C(c1ccc(N2CCNCC2)cc1)c1cccnc1 | 11.4 |

| SMILES | hERG current change (%, negative = inhibition) at 1uM [%] |
| --- | --- |
| CC(=O)N1CCN(CC(=O)c2ccc(Br)cc2)CC1.Cl | 7.75 |
| Cc1cccc(NC(=O)CNC(=O)COc2ccc(-c3ccc(C#N)cc3)cc2)c1C | 8.38 |
| CC1CCCCC1NS(=O)(=O)c1ccc(-n2cnnn2)cc1 (stereo not shown) | 7.31 |
| COc1ccccc1C1CCN(C(=O)c2ccco2)CC1 | 12.3 |
| CC(OC(=O)C1CCCO1)C(=O)NC1CCCC1 (stereo not shown) | 2.27 |
| Cc1cc(=O)n2c(C(=O)Nc3ccc(C(=O)OC(C)C)cc3)c(C(=O)Nc3ccccc3)sc2n1 | 10.7 |
| O=C1CCC([N+](=O)[O-])C(c2ccccc2F)N1 (stereo not shown) | 12.5 |
| CCOc1ccc(C(C(=O)NCC2CCCO2)N(C(=O)c2snc(C(N)=O)c2N)c2ccc(F)cc2)cc1 (stereo not shown) | 7.1 |
| Cc1cccc(-n2ncc3c(NNC(=O)c4ccco4)ncnc32)c1 | 14.8 |
| CC(=O)N1N=C(c2ccc3nccnc3c2)CC1c1ccccc1 (stereo not shown) | -7.41 |
| CCSc1nc2c(c(=O)[nH]c(=O)n2C)n1C | 13.3 |
| O=C(NC(=S)N(Cc1ccccc1)c1ccccn1)C1CCCCC1 | -0.314 |
| O=C(Nc1cccnc1)c1cccc(S(=O)(=O)N2CCOCC2)c1 | 11 |
| CC(=O)c1cccc(NC(=O)c2ccccc2-c2ccccc2C(=O)O)c1 | 17.1 |
| Cn1nnc2cc(C(=O)N3CCN(c4ccccc4)CC3)ccc21 | 5.2 |
| O=c1c(C(c2ccccc2)c2c(O)sc3ccccc3c2=O)c(O)sc2ccccc12 | 5.05 |
| Cn1c(C23CC4CC(CC(C4)C2)C3)n[nH]c1=S | 12 |
| O=C(COC(=O)CCC(=O)c1ccc(Cl)cc1)NCC1CCCO1 (stereo not shown) | 12.2 |
| C=CCOc1ccccc1CN1CCC(n2nccc2NC(=O)c2ccccc2)CC1 | -25.5 |
| O=C(NNC(=O)C1CC=CCC1C(=O)O)c1cccs1 (stereo not shown) | 9.94 |
| Cc1ccc(NC(=O)COC(=O)c2ccc([N+](=O)[O-])o2)cc1S(=O)(=O)N1CCCCC1 | 7.15 |
| COc1ccccc1CNC(=O)CC(C)c1ccccc1 (stereo not shown) | 11.2 |
| Oc1c(Br)cc(Br)cc1CN1CCN(Cc2ccccc2)CC1 | 15 |

| SMILES | hERG current change (%, negative = inhibition) at 1uM [%] |
| --- | --- |
| CC(=O)Nc1ccc(NC(=O)CCc2nc3ccccc3c(=O)[nH]2)cc1 | 10.8 |
| O=C(N/N=C/c1ccc(O)cc1)c1cccc(C(F)(F)F)c1 | 5.94 |
| CCCOc1ccc(C(C)=O)cc1Cc1c(O)nc(SC)[nH]c1=O | 13.7 |
| COc1ccc(OC)c(-c2nnc(SCC(=O)NC3CCCCC3)o2)c1 | -10.4 |
| CCCN1CCOC(CC(=O)Nc2ccc([N+](=O)[O-])cc2)C1=O (stereo not shown) | 10.5 |
| O=C(NCC1CCCO1)/C(=C\c1ccco1)NC(=O)c1ccc(Cl)cc1 (stereo not shown) | 1.85 |
| CCCCn1c(=O)c2c(O)cc(=O)oc2c2ccccc21 | 17.1 |
| CC1Sc2ccc(S(=O)(=O)N3CCC(C(=O)N(C)Cc4ccco4)CC3)cc2NC1=O (stereo not shown) | 7.3 |
| O=C(NCCN1CCOCC1)c1ccc(NS(=O)(=O)c2ccccc2)cc1 | 10.2 |
| Cc1sc(NC(=O)COc2ccccc2)c(C#N)c1C | 15.3 |
| O=C(c1cc(COc2ccc(F)cc2Cl)on1)N1CC2C[C@@H]3CC1C[C@H](C2)C3 | 12.6 |
| CC(=O)c1cc(-c2ccccc2)n(CCC(=O)NC2CCCCCCC2)c1C | 8.01 |
| COc1ccccc1C(=O)OCc1ccc2sc(C)nc2c1 | 4.31 |
| O=C(CSc1nnnn1-c1ccccc1)CC(=O)Nc1ccc(Cl)cc1 | -6.07 |
| Cc1onc(-c2ccccc2Cl)c1C(=O)N1CCN(c2nc3ccccc3s2)CC1 | 8.43 |
| O=C(CC1Oc2ccccc2NC1=O)NCCCN1CCCC1=O (stereo not shown) | -6.46 |
| CCCCN(CC)CCNC(=O)CN1C(=O)COc2ccc(S(=O)(=O)N3CCCC3)cc21 | 9.86 |
| CCc1ccc(CN2CCC(n3nccc3NC(=O)c3ccccc3C)CC2)cc1 | -85.1 |
| O=C(OCc1nnc(-c2ccccc2)o1)c1ccccc1 | 10.3 |
| CCOC(=O)COc1cccc2c(=O)n(CC(N)=O)ccc12 | 11.6 |
| Cc1cc(=O)oc2ccc(OCC(=O)O)cc12 | 12.9 |
| CC(=O)N1CCCc2ccc(NS(=O)(=O)c3ccc(C)c(C)c3)cc21 | 13.3 |
| COc1ccc(-n2c(=O)c3c4c(sc3n(CC(=O)NC3CCCC3)c2=O)CCCC4)c(OC)c1 | 12.7 |

| SMILES | hERG current change (%, negative = inhibition) at 1uM [%] |
| --- | --- |
| CCCNc1nc(Cl)nc(NCc2cccnc2)n1 | 10.2 |
| CC12CCC(=O)N1C(C(=O)OCC(=O)Nc1cccc(S(=O)(=O)N3CCCCCC3)c1)CS2 (stereo not shown) | -51.9 |
| O=C(/C=C/c1ccco1)NC(=S)Nc1ccccc1 | 14.7 |
| Cc1cc(C)n2nc(C(=O)OCC(=O)Nc3cc(Cl)ccc3C)nc2n1 | 8.14 |
| Cc1cc(C)c(S(=O)(=O)N2CCc3ccccc32)c(C)c1 | 17.5 |
| Nc1nc(N)c2sc3nc4c(cc3c2n1)CCC4 | 3.67 |
| COc1ccc(CCC(C)NCCc2ccccc2)cc1 (stereo not shown) | -17.9 |
| COC(=O)CNC(=O)c1ccc2c(c1)S(=O)(=O)c1ccccc1C2=O | 0.0767 |
| CCN1C(=O)[C@H]2[C@@H](c3ccc(C)cc3)N3C(=O)N(c4cccc(Cl)c4)C(=O)[C@@]3(C)[C@H]2C1=O | 12.8 |
| Nc1nc(N)nc(-c2ccccc2)n1 | 14.6 |
| Cc1c(-c2nc(-c3ccc(C(F)(F)F)cc3)no2)n(C)oc1=O | 10.9 |
| CC1CC1C(=O)Nc1cc(C(F)(F)F)ccc1N1CCOCC1 (stereo not shown) | -0.0887 |
| COc1cc(Cl)c(C)cc1NC(=O)c1ccc(S(C)(=O)=O)cc1 | 6.45 |
| O=C(c1cc(-c2ccco2)nc2ccccc12)N1CCN(Cc2ccccc2)CC1 | -1.82 |
| Cc1ccc(S(=O)(=O)NC(Cc2ccc(Cl)cc2)C(=O)O)cc1 (stereo not shown) | 14.6 |
| N#Cc1c(NC(=O)CSc2ncn[nH]2)sc2c1CCCC2 | 11 |
| COc1c(C)cc(Br)cc1C(=O)Nc1cccc(NC(=O)c2ccco2)c1 | -6.44 |
| Cc1ccc(S(=O)(=O)NNC(=S)NCCc2ccccc2)cc1 | 3.06 |
| CCCCN1C(=O)c2ccc(C(=O)NCCN3C(=O)S/C(=C\c4cccnc4)C3=O)cc2C1=O | 6.61 |
| CC(/C=C/c1ccccc1)NC(N)=O (stereo not shown) | 11.2 |
| COC(=O)C1CCN(C(=O)Nc2ccccc2)CC1 | 19.6 |
| CCCCOc1ccc(C(=O)Nc2ccc(N3CCN(C(=O)C(C)C)CC3)cc2)cc1 | 13.1 |
